Read-outs that look alike come from different tables or passages of the source. The name of at least one read-out is uncertain.
How the values were obtained:
Type in all cases: in vivo
serum calcium level [1] = settings: rabbit, nasal, 15 units/50 microliters calcitonin, 10 parts enhancer
serum calcium level [2] = experiment: Serum calcium after intrarectal (Asu^1.7)-eel calcitonin suppository in rats; settings: rat, 0.7 MRC unit calcitonin, 7 parts enhancer
Method: (Asu^1.7)-eel calcitonin was gradually added and mixed with the mixture to form a uniform composition. The composition was slightly warmed, and filled into a suppository container to form a suppository for rats having a diameter of about 3 mm and a length of about 8 mm. This suppository contained 0.7 MRC unit of calcitonin. The suppository was intrarectally administered to a rat, and the concentration of calcium in the blood serum after administration was measured by using a calcium measuring kit (made by Iatoron Co.).
For comparison, suppositories (Comparisons 76 to 87) composed of 93 parts of cacao butter, 7 parts of the various pyroglutamates shown in Table 6 and caltitonin and a suppository composed only of cacao butter and caltitonin (Comparison 88) were prepared. They wre individually administered intrarectally to rats, and the calcium concentration in the serum was measured.

blood glucose level = experiment: Blood glucose after intrarectal hog insulin gelatin capsular suppository in rabbits; settings: rabbit, 9.6 units insulin, 10 parts enhancer
Method: Fractionated coconut oil (90 parts) and 10 parts of each of the various pyroglutamates indicated in Table 7 were uniformly mixed, and then hog insulin was gradually added to form a uniform dispersion. The dispersion was filled in a gelatin capsule for suppositoes to form a gelatin capsular suppository. The suppository contained 9.6 units of insulin. The suppository was intrarectally administered to a rabbit and the blood glucose level after administration was measured by the glucose oxidase method.
For comparison, suppositories composed of 90 parts of fractionated coconut oil, 10 parts of the various pyroglutamates indicated in Table 7 (Comparisons 89 to 102) and insulin, and a suppository composed only of fractionated coconut oil and insulin (Comparison 103) were prepared, and tested in the same way as above.

Structure (SMILES)	Percent decrease of the serum calcium level from that before administration (serum calcium level [1]; 1 hr.)	Percent decrease of the serum calcium level from that before administration (serum calcium level [1]; 2 hrs.)	Percent decrease of the serum calcium level from that before administration (serum calcium level [1]; 3 hrs.)	Percent decrease of the serum calcium level from that before administration (serum calcium level [1]; 5 hrs.)	Percent decrease of the serum calcium level from that before administration (serum calcium level [2]; 1 hr.)	Percent decrease of the serum calcium level from that before administration (serum calcium level [2]; 2 hrs.)	Percent decrease of the serum calcium level from that before administration (serum calcium level [2]; 3 hrs.)	Percent decrease of the serum calcium level from that before administration (serum calcium level [2]; 5 hrs.)	Percent decrease of the blood glucose level from that before administration (blood glucose level; 30 min.)	Percent decrease of the blood glucose level from that before administration (blood glucose level; 1 hr.)	Percent decrease of the blood glucose level from that before administration (blood glucose level; 2 hrs.)	Percent decrease of the blood glucose level from that before administration (blood glucose level; 3 hrs.)
CCCCCCCCCCCCCCCCCCCCOC(=O)[C@@H]1CCC(=O)N1 [Eicosanyl L-pyroglutamate, reference compound]	1.7%	0.6%	0%	0%	3.6%	2.0%	0.8%	0.8%	-0.1%	0.7%	0.6%	-1.0%
CCCCCCOC(=O)C1CCC(=O)N1 (racemic) [Hexyl DL-pyroglutamate, reference compound]	0.9%	1.1%	0%	0%	7.5%	2.0%	0.8%	0.8%	4.3%	1.1%	1.0%	-0.9%
CCCCCCCCCCCCCOC(=O)[C@@H]1CCC(=O)N1 [Compound (118), Tridecyl L-pyroglutamate]	6.5%	7.0%	3.4%	0.6%	32.6%	24.7%	10.8%	1.2%	33.1%	28.5%	19.4%	1.2%
O=C1CCC(C(=O)O)N1 (racemic) [DL-Pyroglutamic acid, reference compound]									-0.8%	0.9%	0.6%	-0.5%
CCCCCCCCCCCCOC(=O)C1CCC(=O)N1 (racemic) [Compound (106), Dodecyl DL-pyroglutamate]	6.5%	6.0%	2.8%	0.7%	30.4%	27.2%	15.9%	1.0%	35.1%	34.3%	19.0%	5.5%
CCCCCCCCCCCCCCCCCCOC(=O)C1CCC(=O)N1 (racemic) [Octadecyl DL-pyroglutamate, reference compound]	1.5%	0.8%	0%	0%	4.1%	1.8%	0.8%	0.8%	-0.9%	0.7%	1.1%	0.6%
CCOC(=O)C1CCC(=O)N1 (racemic) [Ethyl DL-pyroglutamate, reference compound]	1.8%	0.9%	0%	0%	6.3%	2.0%	0.9%	0.8%	1.3%	-0.1%	0.3%	0.0%
CCCCCCCCCCOC(=O)C1CCC(=O)N1 (racemic) [Compound (102), Decyl DL-pyroglutamate]	5.1%	3.9%	3.1%	0.5%	28.4%	24.1%	14.8%	0.7%	27.5%	24.4%	17.9%	1.0%
CCCCCCCCCCCCOC(=O)[C@@H]1CCC(=O)N1 [Compound (116), Dodecyl L-pyroglutamate]	7.5%	5.3%	2.4%	0.8%	35.1%	27.4%	16.8%	1.1%	38.1%	39.4%	20.1%	5.4%
CC1CCC(C(C)C)C(OC(=O)[C@@H]2CCC(=O)N2)C1 (stereo partly drawn) [Compound (308), Menthyl L-pyroglutamate]	6.5%	5.4%	2.7%	0.6%	27.5%	26.3%	12.0%	0.9%	30.7%	26.5%	19.1%	3.0%
O=C1CC[C@@H](C(=O)O)N1 [L-Pyroglutamic acid, reference compound]									1.3%	0.7%	0.6%	0.1%

— patent publication US4789667A, “External pharmaceutical composition and methods of use” (priority 1984, dated 1988)
